Source: the supplement of paper PMC9151546
Most values come without repeats; read them as rough.

Experiments:
[1] = test system: CHO-K1; assay: micronucleus frequency (% of nucleated events); higher = more micronuclei (genotoxic)
[2] = test system: CHO-K1; assay: relative survival (nuclei to bead ratio vs DMSO control) (% of vehicle control); higher = more surviving cells
Description: (§1)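 Flow-cytometric in vitro micronucleus assay (Litron MicroFlow) in CHO-K1 cells in 96-well plates, 19 concentrations (4.5-200 µM, n=1 per concentration). Without S9, cells were exposed for 24 h and sampled at 48 h. With Aroclor 1254-induced rat liver S9, cells were exposed for 3-4 h and sampled at 27-28 h. Read-outs are %MN and %hypodiploid nuclei relative to nucleated events, and relative survival as the nuclei-to-bead ratio versus the 1% DMSO vehicle control (x100).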

[3] = test system: CHO-K1; assay: hypodiploid nuclei frequency (% of nucleated events); higher = more hypodiploid events (aneugenic)
Description: as §1
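Throughout, for hypodiploid nuclei frequency (% of nucleated events): hypodiploid nuclei gated on a flow cytometer with 488 nm excitation after SYTOX Green staining, cultures at 37 °C, positive controls vinblastine without S9 and cyclophosphamide with S9.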
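Throughout, for micronucleus frequency (% of nucleated events): cells lysed with nuclei stained by SYTOX Green, then micronucleus-gated events counted against nucleated events by flow cytometry with 488 nm excitation.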
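Throughout, for relative survival (nuclei to bead ratio vs DMSO control): Lysed-cell nuclei stained with SYTOX Green and counted against counting beads by flow cytometry at 488 nm excitation, with vinblastine (no S9) and cyclophosphamide (plus S9) as positive controls.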

Oc1cc(Cl)c(Cl)cc1Cl [2,4,5-Trichlorophenol]
Conditions	hypodiploid nuclei frequency, [3] [%]	micronucleus frequency, [1] [%]	relative survival, [2]
concentration: 4.5 (µM), S9 metabolic activation: with S9, exposure time: 3-4 hours	0.26	1.38	100
concentration: 4.5 (µM), S9 metabolic activation: without S9, exposure time: 24 hours	0.44	1.12	85
concentration: 5.63 (µM), S9 metabolic activation: with S9, exposure time: 3-4 hours	0.2	1.16	94.7
concentration: 5.63 (µM), S9 metabolic activation: without S9, exposure time: 24 hours	0.48	1.06	109
concentration: 7.04 (µM), S9 metabolic activation: with S9, exposure time: 3-4 hours	0.18	1.58	97.1
concentration: 7.04 (µM), S9 metabolic activation: without S9, exposure time: 24 hours	0.48	1.5	90
concentration: 8.8 (µM), S9 metabolic activation: with S9, exposure time: 3-4 hours	0.4	1.98	106
concentration: 8.8 (µM), S9 metabolic activation: without S9, exposure time: 24 hours	0.44	1.28	113
concentration: 11 (µM), S9 metabolic activation: with S9, exposure time: 3-4 hours	0.38	1.64	106
concentration: 11 (µM), S9 metabolic activation: without S9, exposure time: 24 hours	0.64	1.34	89.1
concentration: 13.7 (µM), S9 metabolic activation: with S9, exposure time: 3-4 hours	0.46	1.1	108
concentration: 13.7 (µM), S9 metabolic activation: without S9, exposure time: 24 hours	0.36	0.98	88.1
concentration: 17.2 (µM), S9 metabolic activation: with S9, exposure time: 3-4 hours	0.46	3.64	83.3
concentration: 17.2 (µM), S9 metabolic activation: without S9, exposure time: 24 hours	0.56	1.16	104
concentration: 21.5 (µM), S9 metabolic activation: with S9, exposure time: 3-4 hours	0.44	4.14	70.9
concentration: 21.5 (µM), S9 metabolic activation: without S9, exposure time: 24 hours	0.54	1.08	103
concentration: 26.8 (µM), S9 metabolic activation: with S9, exposure time: 3-4 hours	0.32	2.7	57.6
concentration: 26.8 (µM), S9 metabolic activation: without S9, exposure time: 24 hours	0.68	1.78	91
concentration: 33.6 (µM), S9 metabolic activation: with S9, exposure time: 3-4 hours	0.36	3.1	52.9
concentration: 33.6 (µM), S9 metabolic activation: without S9, exposure time: 24 hours	0.78	1.58	87.7
concentration: 41.9 (µM), S9 metabolic activation: with S9, exposure time: 3-4 hours	0.24	2.4	44.3
concentration: 41.9 (µM), S9 metabolic activation: without S9, exposure time: 24 hours	0.64	1.2	84.5
concentration: 52.4 (µM), S9 metabolic activation: with S9, exposure time: 3-4 hours	0.38	2.88	42.8
concentration: 52.4 (µM), S9 metabolic activation: without S9, exposure time: 24 hours	0.92	1.26	63.6
concentration: 65.5 (µM), S9 metabolic activation: with S9, exposure time: 3-4 hours	0.56	3.04	51.4
concentration: 65.5 (µM), S9 metabolic activation: without S9, exposure time: 24 hours	1.28	1.3	47.9
concentration: 81.9 (µM), S9 metabolic activation: with S9, exposure time: 3-4 hours	0.32	3.9	51.5
concentration: 81.9 (µM), S9 metabolic activation: without S9, exposure time: 24 hours	–	–	36.6
concentration: 102 (µM), S9 metabolic activation: with S9, exposure time: 3-4 hours	0.18	3.64	49.9
concentration: 102 (µM), S9 metabolic activation: without S9, exposure time: 24 hours	–	–	39.2
concentration: 128 (µM), S9 metabolic activation: with S9, exposure time: 3-4 hours	0.38	4.04	53.1
concentration: 128 (µM), S9 metabolic activation: without S9, exposure time: 24 hours	–	–	34.6
concentration: 160 (µM), S9 metabolic activation: with S9, exposure time: 3-4 hours	0.38	3.68	55.2
concentration: 160 (µM), S9 metabolic activation: without S9, exposure time: 24 hours	–	–	33.9
concentration: 200 (µM), S9 metabolic activation: with S9, exposure time: 3-4 hours	0.38	3.46	54.4
concentration: 200 (µM), S9 metabolic activation: without S9, exposure time: 24 hours	–	–	33.4

O=[N+]([O-])c1ccc(O)c([N+](=O)[O-])c1 [2,4-Dinitrophenol]
Conditions	hypodiploid nuclei frequency, [3] [%]	micronucleus frequency, [1] [%]	relative survival, [2]
concentration: 4.5 (µM), S9 metabolic activation: with S9, exposure time: 3-4 hours	0.4	2.3	65.5
concentration: 4.5 (µM), S9 metabolic activation: without S9, exposure time: 24 hours	1.28	1.88	99.4
concentration: 5.63 (µM), S9 metabolic activation: with S9, exposure time: 3-4 hours	0.38	1.82	76.7
concentration: 5.63 (µM), S9 metabolic activation: without S9, exposure time: 24 hours	1.28	2.18	98.7
concentration: 7.04 (µM), S9 metabolic activation: with S9, exposure time: 3-4 hours	0.34	2	92
concentration: 7.04 (µM), S9 metabolic activation: without S9, exposure time: 24 hours	1.36	2.06	89.8
concentration: 8.8 (µM), S9 metabolic activation: with S9, exposure time: 3-4 hours	0.38	2.04	94
concentration: 8.8 (µM), S9 metabolic activation: without S9, exposure time: 24 hours	1.38	2.46	91
concentration: 11 (µM), S9 metabolic activation: with S9, exposure time: 3-4 hours	0.36	2.04	76
concentration: 11 (µM), S9 metabolic activation: without S9, exposure time: 24 hours	1	2.86	100
concentration: 13.7 (µM), S9 metabolic activation: with S9, exposure time: 3-4 hours	0.5	2.68	77.1
concentration: 13.7 (µM), S9 metabolic activation: without S9, exposure time: 24 hours	1.3	1.82	104
concentration: 17.2 (µM), S9 metabolic activation: with S9, exposure time: 3-4 hours	0.22	2.52	86.6
concentration: 17.2 (µM), S9 metabolic activation: without S9, exposure time: 24 hours	1.56	2.2	108
concentration: 21.5 (µM), S9 metabolic activation: with S9, exposure time: 3-4 hours	0.32	1.24	98.3
concentration: 21.5 (µM), S9 metabolic activation: without S9, exposure time: 24 hours	1.12	1.78	118
concentration: 26.8 (µM), S9 metabolic activation: with S9, exposure time: 3-4 hours	0.28	1.38	118
concentration: 26.8 (µM), S9 metabolic activation: without S9, exposure time: 24 hours	1.22	1.8	114
concentration: 33.6 (µM), S9 metabolic activation: with S9, exposure time: 3-4 hours	0.2	1.28	95.5
concentration: 33.6 (µM), S9 metabolic activation: without S9, exposure time: 24 hours	1.34	1.84	110
concentration: 41.9 (µM), S9 metabolic activation: with S9, exposure time: 3-4 hours	0.38	1.82	87.1
concentration: 41.9 (µM), S9 metabolic activation: without S9, exposure time: 24 hours	1.54	1.98	96.5
concentration: 52.4 (µM), S9 metabolic activation: with S9, exposure time: 3-4 hours	0.14	1.78	90.1
concentration: 52.4 (µM), S9 metabolic activation: without S9, exposure time: 24 hours	1.66	2.72	102
concentration: 65.5 (µM), S9 metabolic activation: with S9, exposure time: 3-4 hours	0.28	1.78	83.4
concentration: 65.5 (µM), S9 metabolic activation: without S9, exposure time: 24 hours	1.48	2.24	100
concentration: 81.9 (µM), S9 metabolic activation: with S9, exposure time: 3-4 hours	0.3	1.7	93.6
concentration: 81.9 (µM), S9 metabolic activation: without S9, exposure time: 24 hours	2.28	2.68	96.5
concentration: 102 (µM), S9 metabolic activation: with S9, exposure time: 3-4 hours	0.42	1.78	80.9
concentration: 102 (µM), S9 metabolic activation: without S9, exposure time: 24 hours	2.1	2.72	105
concentration: 128 (µM), S9 metabolic activation: with S9, exposure time: 3-4 hours	0.26	1.88	108
concentration: 128 (µM), S9 metabolic activation: without S9, exposure time: 24 hours	2.74	3.22	81.2
concentration: 160 (µM), S9 metabolic activation: with S9, exposure time: 3-4 hours	0.28	2.3	90.1
concentration: 160 (µM), S9 metabolic activation: without S9, exposure time: 24 hours	2.74	2.76	77.1
concentration: 200 (µM), S9 metabolic activation: with S9, exposure time: 3-4 hours	0.34	2.08	83.7
concentration: 200 (µM), S9 metabolic activation: without S9, exposure time: 24 hours	2.84	3.36	66.8
